Laboratory results: patent publication US20200085917A1 (UNIVERSITY OF PITTSBURGH OF THE COMMONWEALTH SYSTEM OF …, published 2020)

Legend:
Test in all cases: GST pull-down, LC-MS/MS
[1] = biological target: Hspa9_IPI:IPI00880839.1 (mouse, UniProt P38647 47-679)
[2] = biological target: Hspa5_IPI:IPI00319992.1 (mouse, UniProt P20029 20-655)
[3] = biological target: Tpi1_IPI:IPI00467833.6 (mouse, UniProt P17751 2-249)
[4] = biological target: T1, Asah1_IPI:IPI00125266.1 (mouse, UniProt Q9WV54 19-394, limits assumed)
T1 sequence (looked up): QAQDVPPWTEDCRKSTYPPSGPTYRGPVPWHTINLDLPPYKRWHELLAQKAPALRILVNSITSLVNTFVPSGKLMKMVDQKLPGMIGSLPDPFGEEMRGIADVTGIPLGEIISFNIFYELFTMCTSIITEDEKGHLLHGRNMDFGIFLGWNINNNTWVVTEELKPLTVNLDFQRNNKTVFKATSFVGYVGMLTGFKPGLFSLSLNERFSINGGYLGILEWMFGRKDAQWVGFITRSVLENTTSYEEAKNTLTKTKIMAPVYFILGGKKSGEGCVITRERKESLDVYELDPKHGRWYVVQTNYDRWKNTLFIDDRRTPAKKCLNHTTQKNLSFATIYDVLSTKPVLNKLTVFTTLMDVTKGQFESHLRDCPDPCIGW

[5] = biological target: T2, Acad8_IPI:IPI00274222.2 (mouse, UniProt Q9D7B6 21-413)
T2 sequence (looked up): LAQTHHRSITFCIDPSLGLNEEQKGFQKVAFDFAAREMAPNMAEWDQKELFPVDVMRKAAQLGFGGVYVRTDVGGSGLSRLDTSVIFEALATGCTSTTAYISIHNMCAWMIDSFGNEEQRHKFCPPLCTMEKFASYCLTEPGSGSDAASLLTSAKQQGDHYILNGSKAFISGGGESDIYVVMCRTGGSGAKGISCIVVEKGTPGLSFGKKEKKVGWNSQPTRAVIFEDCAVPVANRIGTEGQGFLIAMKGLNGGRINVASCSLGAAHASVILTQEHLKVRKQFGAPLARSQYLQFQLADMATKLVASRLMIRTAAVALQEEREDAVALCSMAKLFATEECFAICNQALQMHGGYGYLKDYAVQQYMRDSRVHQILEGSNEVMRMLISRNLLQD

[6] = biological target: T3, Etfa_IPI:IPI00116753.4 (mouse, UniProt Q99LC5 20-333)
T3 sequence (looked up): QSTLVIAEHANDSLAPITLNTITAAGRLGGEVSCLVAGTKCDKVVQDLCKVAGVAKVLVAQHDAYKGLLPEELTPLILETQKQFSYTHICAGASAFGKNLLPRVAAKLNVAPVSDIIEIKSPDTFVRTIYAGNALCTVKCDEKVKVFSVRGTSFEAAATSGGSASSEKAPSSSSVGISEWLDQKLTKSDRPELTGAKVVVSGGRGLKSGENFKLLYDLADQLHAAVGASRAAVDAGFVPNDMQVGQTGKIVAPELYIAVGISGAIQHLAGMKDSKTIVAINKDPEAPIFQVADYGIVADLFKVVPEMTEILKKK

[7] = biological target: T4, Nubpl_IPI:IPI00317709.1 (mouse, UniProt Q9CWD8 39-319)
T4 sequence (looked up): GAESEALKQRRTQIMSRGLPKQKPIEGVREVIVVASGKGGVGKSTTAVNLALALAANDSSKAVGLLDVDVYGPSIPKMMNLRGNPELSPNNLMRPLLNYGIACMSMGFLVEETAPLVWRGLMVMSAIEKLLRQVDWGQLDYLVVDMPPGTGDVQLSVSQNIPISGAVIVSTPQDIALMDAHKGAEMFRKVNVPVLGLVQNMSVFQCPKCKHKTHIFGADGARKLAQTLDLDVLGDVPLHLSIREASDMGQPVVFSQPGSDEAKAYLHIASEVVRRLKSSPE

[8] = biological target: T5, Hsdl1_IPI:IPI00225301.1 (mouse, UniProt Q8BTX9 2-330)
T5 sequence (looked up): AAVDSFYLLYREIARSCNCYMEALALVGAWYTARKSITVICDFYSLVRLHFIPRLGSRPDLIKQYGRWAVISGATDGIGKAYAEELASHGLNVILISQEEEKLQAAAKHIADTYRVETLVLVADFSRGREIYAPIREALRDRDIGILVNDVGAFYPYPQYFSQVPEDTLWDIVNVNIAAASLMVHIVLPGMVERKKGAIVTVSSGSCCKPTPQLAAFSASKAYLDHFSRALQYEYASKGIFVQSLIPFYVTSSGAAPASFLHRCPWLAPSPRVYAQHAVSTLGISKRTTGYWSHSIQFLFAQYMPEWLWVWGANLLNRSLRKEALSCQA

[9] = biological target: T6, Syngr3_IPI:IPI00331579.1 (mouse, UniProt Q8R191 1-229)
T6 sequence (looked up): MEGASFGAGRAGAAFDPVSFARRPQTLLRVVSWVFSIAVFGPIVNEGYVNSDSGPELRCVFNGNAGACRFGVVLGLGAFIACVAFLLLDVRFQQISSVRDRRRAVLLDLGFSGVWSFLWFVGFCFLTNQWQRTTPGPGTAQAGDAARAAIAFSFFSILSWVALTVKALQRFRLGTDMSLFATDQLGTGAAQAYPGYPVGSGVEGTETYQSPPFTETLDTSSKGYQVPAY

Sequence of UniProt P20029 (P20029 20-655 limits assumed): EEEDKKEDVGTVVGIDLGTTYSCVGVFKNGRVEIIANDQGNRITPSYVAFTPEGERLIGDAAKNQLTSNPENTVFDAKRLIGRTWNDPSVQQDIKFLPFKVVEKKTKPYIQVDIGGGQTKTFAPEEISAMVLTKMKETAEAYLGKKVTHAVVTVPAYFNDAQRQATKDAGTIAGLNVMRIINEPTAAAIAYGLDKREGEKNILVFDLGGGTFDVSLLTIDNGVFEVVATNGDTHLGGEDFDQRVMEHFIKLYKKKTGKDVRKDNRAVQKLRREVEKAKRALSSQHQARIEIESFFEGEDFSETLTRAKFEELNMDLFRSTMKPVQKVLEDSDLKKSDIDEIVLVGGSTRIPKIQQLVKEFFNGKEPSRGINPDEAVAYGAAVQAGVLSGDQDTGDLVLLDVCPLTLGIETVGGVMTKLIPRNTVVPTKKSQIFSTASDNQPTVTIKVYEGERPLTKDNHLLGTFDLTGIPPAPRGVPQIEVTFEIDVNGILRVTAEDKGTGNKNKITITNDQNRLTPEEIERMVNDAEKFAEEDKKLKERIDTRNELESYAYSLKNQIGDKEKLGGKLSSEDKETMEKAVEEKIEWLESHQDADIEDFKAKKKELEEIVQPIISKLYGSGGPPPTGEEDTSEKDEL
Sequence of UniProt P38647 (P38647 47-679 limits assumed): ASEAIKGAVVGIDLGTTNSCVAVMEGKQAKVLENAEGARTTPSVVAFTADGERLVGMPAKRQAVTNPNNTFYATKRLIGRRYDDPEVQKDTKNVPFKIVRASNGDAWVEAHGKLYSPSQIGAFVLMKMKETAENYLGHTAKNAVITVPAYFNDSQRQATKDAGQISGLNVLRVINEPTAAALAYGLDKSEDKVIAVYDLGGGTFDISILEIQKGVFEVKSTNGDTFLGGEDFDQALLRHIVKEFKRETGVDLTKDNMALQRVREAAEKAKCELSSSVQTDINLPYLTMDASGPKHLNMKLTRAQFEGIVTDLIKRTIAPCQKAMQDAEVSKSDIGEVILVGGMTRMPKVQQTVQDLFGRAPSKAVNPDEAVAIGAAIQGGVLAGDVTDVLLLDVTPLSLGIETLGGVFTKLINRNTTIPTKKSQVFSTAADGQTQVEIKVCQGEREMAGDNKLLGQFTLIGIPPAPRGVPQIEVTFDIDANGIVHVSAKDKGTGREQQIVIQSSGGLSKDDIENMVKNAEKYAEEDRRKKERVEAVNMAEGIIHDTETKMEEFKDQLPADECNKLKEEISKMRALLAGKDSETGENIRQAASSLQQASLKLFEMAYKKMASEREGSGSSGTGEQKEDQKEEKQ
Sequence of UniProt P17751 (P17751 2-249 limits assumed): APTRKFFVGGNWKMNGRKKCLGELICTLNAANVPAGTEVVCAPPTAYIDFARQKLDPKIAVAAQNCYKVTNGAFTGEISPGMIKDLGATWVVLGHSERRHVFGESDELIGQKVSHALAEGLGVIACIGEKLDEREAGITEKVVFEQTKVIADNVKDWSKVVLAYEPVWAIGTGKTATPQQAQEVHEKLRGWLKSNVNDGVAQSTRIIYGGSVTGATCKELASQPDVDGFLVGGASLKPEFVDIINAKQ

binding result [1]: no binding
binding result [2]: no binding
binding result [3]: no binding
binding result [4]: no binding
binding result [5]: no binding
binding result [6]: no binding
binding result [7]: no binding
binding result [8]: no binding
binding result [9]: no binding
B1: GST alone (other)
chain: not shown
notes: Negative control of the pull-downs; also called control GST
